Experimental data reported in publication PMC4729865.
Results are given in words; binding and its absence hold for the method and conditions named. For some of these results: In cells and extracts the contact can be indirect. Some binding calls cover weakened binding; strength is not graded here. For some of these results: Tags and fused reporters may be left off the sequences shown. Values belong to the binder of their own block, whether it stands above or below them.

Legend:
[1] = molecular target: T1, Flag-Mad1 (176–350 amino acids) (human) (UniProt Q9Y6D9); assay: co-IP; lysates of co-transfected HEK293T cells (150 mM NaCl, 1 mM MgCl2, 50 mM Hepes pH 7.4, 1 mM EGTA, 0.5% Triton X-100); antibody 4 h at 4 °C, protein A-Sepharose 2 h; western blotting
T1 sequence: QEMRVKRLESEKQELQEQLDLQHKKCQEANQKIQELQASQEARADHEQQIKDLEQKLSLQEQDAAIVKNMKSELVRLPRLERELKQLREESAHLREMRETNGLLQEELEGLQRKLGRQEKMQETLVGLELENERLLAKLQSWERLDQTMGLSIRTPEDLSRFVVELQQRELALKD

[2] = molecular target: T2, Flag-Mad1 (1–175 amino acids) (human) (UniProt Q9Y6D9); assay: as above
T2 sequence: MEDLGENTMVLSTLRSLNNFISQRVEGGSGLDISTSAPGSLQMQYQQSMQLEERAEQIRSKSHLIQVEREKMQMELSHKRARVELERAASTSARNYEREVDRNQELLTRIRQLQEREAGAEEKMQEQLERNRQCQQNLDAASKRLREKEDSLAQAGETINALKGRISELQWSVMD

[3] = molecular target: T3, Flag-Mad1 (1–530 amino acids) (human) (UniProt Q9Y6D9); assay: as above
T3 sequence: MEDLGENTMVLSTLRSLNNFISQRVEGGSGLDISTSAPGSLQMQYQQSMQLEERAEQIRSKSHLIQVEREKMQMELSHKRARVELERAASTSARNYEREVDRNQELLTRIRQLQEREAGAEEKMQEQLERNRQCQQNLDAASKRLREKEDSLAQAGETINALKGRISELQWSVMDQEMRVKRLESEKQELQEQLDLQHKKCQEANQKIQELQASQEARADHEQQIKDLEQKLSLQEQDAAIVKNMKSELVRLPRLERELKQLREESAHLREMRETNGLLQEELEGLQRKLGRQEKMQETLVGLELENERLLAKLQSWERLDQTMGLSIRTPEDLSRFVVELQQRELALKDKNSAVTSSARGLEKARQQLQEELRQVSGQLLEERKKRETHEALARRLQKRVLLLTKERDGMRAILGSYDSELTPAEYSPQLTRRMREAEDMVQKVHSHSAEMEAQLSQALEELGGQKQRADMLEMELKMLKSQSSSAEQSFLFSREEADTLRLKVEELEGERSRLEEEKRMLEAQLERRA

[4] = molecular target: T4, Flag-Mad1 (351–530 amino acids) (human) (UniProt Q9Y6D9); assay: as above
T4 sequence: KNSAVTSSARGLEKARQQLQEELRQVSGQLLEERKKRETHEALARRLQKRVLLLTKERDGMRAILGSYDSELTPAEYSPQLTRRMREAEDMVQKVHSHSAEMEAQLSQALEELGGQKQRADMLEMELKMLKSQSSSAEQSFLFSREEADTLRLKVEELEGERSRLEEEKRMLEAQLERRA

[5] = molecular target: T5, GST-Cep57 (195–500 amino acids) (human) (UniProt Q86XR8); assay: pull-down; GST-tagged Cep57 fragments on Glutathione Sepharose 4B beads incubated with lysates of HEK293T cells overexpressing the partner, 4 h at 4 °C; western blotting; only the target purified
T5 sequence: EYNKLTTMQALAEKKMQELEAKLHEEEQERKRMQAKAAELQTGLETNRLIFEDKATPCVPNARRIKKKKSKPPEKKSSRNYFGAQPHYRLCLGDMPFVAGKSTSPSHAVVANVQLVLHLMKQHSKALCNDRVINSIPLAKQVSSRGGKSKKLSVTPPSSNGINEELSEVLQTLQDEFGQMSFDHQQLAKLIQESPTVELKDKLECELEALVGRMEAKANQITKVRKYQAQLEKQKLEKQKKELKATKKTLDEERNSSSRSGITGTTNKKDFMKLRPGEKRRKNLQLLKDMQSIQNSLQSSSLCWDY

[6] = molecular target: T6, Cep57, yeast two-hybrid fusion (human) (UniProt Q86XR8); assay: two-hybrid; Matchmaker system; bait vector pGBKT7 and prey vector pGADT7 co-transformed into AH109 yeast; growth on quadruple-selective medium (Trp-, Leu-, His-, Ade-), 2-5 days at 30 °C
T6 sequence: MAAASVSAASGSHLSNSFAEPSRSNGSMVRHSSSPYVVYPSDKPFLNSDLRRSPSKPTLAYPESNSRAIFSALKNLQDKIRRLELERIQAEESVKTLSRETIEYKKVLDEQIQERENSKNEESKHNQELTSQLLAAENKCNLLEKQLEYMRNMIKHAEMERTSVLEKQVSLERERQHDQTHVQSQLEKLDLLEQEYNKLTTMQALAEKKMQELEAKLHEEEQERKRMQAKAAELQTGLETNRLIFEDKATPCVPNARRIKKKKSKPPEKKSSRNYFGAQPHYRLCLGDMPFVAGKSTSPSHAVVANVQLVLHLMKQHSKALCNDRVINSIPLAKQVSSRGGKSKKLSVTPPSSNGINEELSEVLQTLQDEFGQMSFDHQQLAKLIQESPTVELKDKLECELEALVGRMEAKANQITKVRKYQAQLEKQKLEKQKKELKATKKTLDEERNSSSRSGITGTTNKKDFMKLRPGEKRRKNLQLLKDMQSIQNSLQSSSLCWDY

[7] = molecular target: T7, Cep57 (endogenous) (human (endogenous in HeLa)) (UniProt Q86XR8); assay: co-IP; endogenous proteins; mitotic HeLa cells arrested by nocodazole; IP with anti-Cep57 antibody, IgG as negative control
T7 sequence: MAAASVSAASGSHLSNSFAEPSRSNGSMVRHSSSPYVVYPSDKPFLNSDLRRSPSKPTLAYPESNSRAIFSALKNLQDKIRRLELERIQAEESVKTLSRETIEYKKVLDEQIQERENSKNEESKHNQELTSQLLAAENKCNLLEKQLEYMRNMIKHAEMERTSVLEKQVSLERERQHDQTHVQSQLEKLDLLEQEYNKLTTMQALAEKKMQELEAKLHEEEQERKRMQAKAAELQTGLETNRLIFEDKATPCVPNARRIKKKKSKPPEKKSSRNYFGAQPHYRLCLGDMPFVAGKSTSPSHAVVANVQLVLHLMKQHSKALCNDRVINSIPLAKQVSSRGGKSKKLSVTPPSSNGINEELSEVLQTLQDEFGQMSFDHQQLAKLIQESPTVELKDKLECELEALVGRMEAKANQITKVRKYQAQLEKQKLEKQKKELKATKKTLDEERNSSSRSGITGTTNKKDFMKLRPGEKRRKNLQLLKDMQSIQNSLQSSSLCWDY

B1: GFP-Cep57 (protein, UniProt Q86XR8 1-500)
chain: MAAASVSAASGSHLSNSFAEPSRSNGSMVRHSSSPYVVYPSDKPFLNSDLRRSPSKPTLAYPESNSRAIFSALKNLQDKIRRLELERIQAEESVKTLSRETIEYKKVLDEQIQERENSKNEESKHNQELTSQLLAAENKCNLLEKQLEYMRNMIKHAEMERTSVLEKQVSLERERQHDQTHVQSQLEKLDLLEQEYNKLTTMQALAEKKMQELEAKLHEEEQERKRMQAKAAELQTGLETNRLIFEDKATPCVPNARRIKKKKSKPPEKKSSRNYFGAQPHYRLCLGDMPFVAGKSTSPSHAVVANVQLVLHLMKQHSKALCNDRVINSIPLAKQVSSRGGKSKKLSVTPPSSNGINEELSEVLQTLQDEFGQMSFDHQQLAKLIQESPTVELKDKLECELEALVGRMEAKANQITKVRKYQAQLEKQKLEKQKKELKATKKTLDEERNSSSRSGITGTTNKKDFMKLRPGEKRRKNLQLLKDMQSIQNSLQSSSLCWDY
- binding [1]: binds weakly
- binding [2]: binds weakly
- binding [3]: binds
- binding [4]: binds weakly

B4: Mad1 (endogenous) (protein, UniProt Q9Y6D9 1-718)
chain: MEDLGENTMVLSTLRSLNNFISQRVEGGSGLDISTSAPGSLQMQYQQSMQLEERAEQIRSKSHLIQVEREKMQMELSHKRARVELERAASTSARNYEREVDRNQELLTRIRQLQEREAGAEEKMQEQLERNRQCQQNLDAASKRLREKEDSLAQAGETINALKGRISELQWSVMDQEMRVKRLESEKQELQEQLDLQHKKCQEANQKIQELQASQEARADHEQQIKDLEQKLSLQEQDAAIVKNMKSELVRLPRLERELKQLREESAHLREMRETNGLLQEELEGLQRKLGRQEKMQETLVGLELENERLLAKLQSWERLDQTMGLSIRTPEDLSRFVVELQQRELALKDKNSAVTSSARGLEKARQQLQEELRQVSGQLLEERKKRETHEALARRLQKRVLLLTKERDGMRAILGSYDSELTPAEYSPQLTRRMREAEDMVQKVHSHSAEMEAQLSQALEELGGQKQRADMLEMELKMLKSQSSSAEQSFLFSREEADTLRLKVEELEGERSRLEEEKRMLEAQLERRALQGDYDQSRTKVLHMSLNPTSVARQRLREDHSQLQAECERLRGLLRAMERGGTVPADLEAAAASLPSSKEVAELKKQVESAELKNQRLKEVFQTKIQEFRKACYTLTGYQIDITTENQYRLTSLYAEHPGDCLIFKATSPSGSKMQLLETEFSHTVGELIEVHLRRQDSIPAFLSSLTLELFSRQTVA
- binding [7]: binds

Further lines, results first:

- binding [5]: binds
B2: Mad1-GFP (protein, UniProt Q9Y6D9 1-718)
chain: MEDLGENTMVLSTLRSLNNFISQRVEGGSGLDISTSAPGSLQMQYQQSMQLEERAEQIRSKSHLIQVEREKMQMELSHKRARVELERAASTSARNYEREVDRNQELLTRIRQLQEREAGAEEKMQEQLERNRQCQQNLDAASKRLREKEDSLAQAGETINALKGRISELQWSVMDQEMRVKRLESEKQELQEQLDLQHKKCQEANQKIQELQASQEARADHEQQIKDLEQKLSLQEQDAAIVKNMKSELVRLPRLERELKQLREESAHLREMRETNGLLQEELEGLQRKLGRQEKMQETLVGLELENERLLAKLQSWERLDQTMGLSIRTPEDLSRFVVELQQRELALKDKNSAVTSSARGLEKARQQLQEELRQVSGQLLEERKKRETHEALARRLQKRVLLLTKERDGMRAILGSYDSELTPAEYSPQLTRRMREAEDMVQKVHSHSAEMEAQLSQALEELGGQKQRADMLEMELKMLKSQSSSAEQSFLFSREEADTLRLKVEELEGERSRLEEEKRMLEAQLERRALQGDYDQSRTKVLHMSLNPTSVARQRLREDHSQLQAECERLRGLLRAMERGGTVPADLEAAAASLPSSKEVAELKKQVESAELKNQRLKEVFQTKIQEFRKACYTLTGYQIDITTENQYRLTSLYAEHPGDCLIFKATSPSGSKMQLLETEFSHTVGELIEVHLRRQDSIPAFLSSLTLELFSRQTVA

- binding [6]: binds
B3: Mad1, yeast two-hybrid fusion (protein, UniProt Q9Y6D9 1-718)
chain: MEDLGENTMVLSTLRSLNNFISQRVEGGSGLDISTSAPGSLQMQYQQSMQLEERAEQIRSKSHLIQVEREKMQMELSHKRARVELERAASTSARNYEREVDRNQELLTRIRQLQEREAGAEEKMQEQLERNRQCQQNLDAASKRLREKEDSLAQAGETINALKGRISELQWSVMDQEMRVKRLESEKQELQEQLDLQHKKCQEANQKIQELQASQEARADHEQQIKDLEQKLSLQEQDAAIVKNMKSELVRLPRLERELKQLREESAHLREMRETNGLLQEELEGLQRKLGRQEKMQETLVGLELENERLLAKLQSWERLDQTMGLSIRTPEDLSRFVVELQQRELALKDKNSAVTSSARGLEKARQQLQEELRQVSGQLLEERKKRETHEALARRLQKRVLLLTKERDGMRAILGSYDSELTPAEYSPQLTRRMREAEDMVQKVHSHSAEMEAQLSQALEELGGQKQRADMLEMELKMLKSQSSSAEQSFLFSREEADTLRLKVEELEGERSRLEEEKRMLEAQLERRALQGDYDQSRTKVLHMSLNPTSVARQRLREDHSQLQAECERLRGLLRAMERGGTVPADLEAAAASLPSSKEVAELKKQVESAELKNQRLKEVFQTKIQEFRKACYTLTGYQIDITTENQYRLTSLYAEHPGDCLIFKATSPSGSKMQLLETEFSHTVGELIEVHLRRQDSIPAFLSSLTLELFSRQTVA
